Reference: patent US10299477B2 (priority 2015, dated 2019)

Columns and labels:
Magnaporthe grisea = assay type: in vivo; settings: for Test A (control value class): rice blast, Magnaporthe grisea, 250 ppm spray; for Test A (control value class, blast on rice): in vivo
Phytophthora infestans = assay type: in vivo; settings: for Test F (control value class): late blight on tomato, Phytophthora infestans, 250 ppm spray, 5-10 days after inoculation; for Test F (control value class, late blight on tomato): 250 ppm, sprayed 2.5 ml/pot before inoculation, evaluated 5-10 days after inoculation

Compound | Test A (control value class) (Magnaporthe grisea) | Test F (control value class) (Phytophthora infestans) | Test A (control value class, blast on rice) (Magnaporthe grisea) | Test F (control value class, late blight on tomato) (Phytophthora infestans)
Cn1c(-c2c(F)cc(F)cc2F)c(-c2cccc(F)c2F)cc(Cl)c1=O [Compound 559] | H (H shows more than 50% of control values) | L (L shows 50% or less of control values) | – | –
Cn1c(-c2c(F)cc(F)cc2F)c(-c2cccc(F)c2F)cc(Br)c1=O [Compound 560] | H (H shows more than 50% of control values) | L (L shows 50% or less of control values) | – | –
COc1cc(F)c(-c2c(-c3cccc(F)c3F)ccc(=O)n2C)c(F)c1 [Compound 561] | – | – | H (H shows more than 50% of control values) | L (L shows 50% or less of control values)
COc1cc(F)c(-c2c(-c3cccc(F)c3F)cc(Cl)c(=O)n2C)c(F)c1 [Compound 562] | – | – | H (H shows more than 50% of control values) | L (L shows 50% or less of control values)
COc1cc(F)c(-c2c(-c3cccc(F)c3F)cc(Br)c(=O)n2C)c(F)c1 [Compound 563] | – | – | H (H shows more than 50% of control values) | L (L shows 50% or less of control values)
Cc1cc(-c2cccc(F)c2F)c(-c2c(F)cc(F)cc2F)n(C)c1=O [Compound 564] | – | – | H (H shows more than 50% of control values) | L (L shows 50% or less of control values)
COc1cc(F)c(-c2c(-c3cccc(F)c3F)cc(C)c(=O)n2C)c(F)c1 [Compound 565] | – | – | H (H shows more than 50% of control values) | L (L shows 50% or less of control values)
CCn1c(-c2c(F)cc(F)cc2F)c(-c2cccc(F)c2F)cc(Cl)c1=O [Compound 566] | – | – | H (H shows more than 50% of control values) | L (L shows 50% or less of control values)
CCn1c(-c2c(F)cc(F)cc2F)c(-c2cccc(F)c2F)cc(Br)c1=O [Compound 567] | – | – | H (H shows more than 50% of control values) | L (L shows 50% or less of control values)
CCn1c(-c2c(F)cc(F)cc2F)c(-c2ccccc2F)cc(F)c1=O [Compound 568] | – | – | H (H shows more than 50% of control values) | L (L shows 50% or less of control values)
CCn1c(-c2c(F)cc(OC)cc2F)c(-c2ccccc2F)cc(C)c1=O [Compound 569] | – | – | H (H shows more than 50% of control values) | L (L shows 50% or less of control values)
COc1cc(F)c(-c2c(-c3ccccc3F)cc(Cl)c(=O)n2C)c(F)c1 [Compound 570] | – | – | H (H shows more than 50% of control values) | L (L shows 50% or less of control values)
Cc1cc(-c2ccccc2F)c(-c2c(F)cc(F)cc2F)n(C)c1=O [Compound 571] | – | – | H (H shows more than 50% of control values) | H (H shows more than 50% of control values)
COc1cc(F)c(-c2c(-c3ccccc3F)cc(Br)c(=O)n2C)c(F)c1 [Compound 572] | – | – | H (H shows more than 50% of control values) | L (L shows 50% or less of control values)
CCN1C(=O)CCC(c2ccc(F)cc2Cl)=C1c1c(F)cc(F)cc1F [Compound 573] | – | – | H (H shows more than 50% of control values) | L (L shows 50% or less of control values)
CN1C(=O)CCC(c2ccc(F)cc2Cl)=C1c1c(F)cc(F)cc1F [Compound 574] | – | – | H (H shows more than 50% of control values) | H (H shows more than 50% of control values)
CCn1c(-c2c(F)cc(F)cc2F)c(-c2ccc(F)cc2Cl)ccc1=O [Compound 575] | – | – | H (H shows more than 50% of control values) | L (L shows 50% or less of control values)
Cn1c(-c2c(F)cc(F)cc2F)c(-c2ccc(F)cc2Cl)ccc1=O [Compound 576] | – | – | H (H shows more than 50% of control values) | L (L shows 50% or less of control values)
CCn1c(-c2c(F)cc(F)cc2F)c(-c2ccc(F)cc2Cl)cc(Cl)c1=O [Compound 577] | – | – | H (H shows more than 50% of control values) | L (L shows 50% or less of control values)
CCn1c(-c2c(F)cc(F)cc2F)c(-c2ccc(F)cc2Cl)cc(Br)c1=O [Compound 578] | – | – | H (H shows more than 50% of control values) | L (L shows 50% or less of control values)

Compound | Test A (control value class) (Magnaporthe grisea) | Test F (control value class) (Phytophthora infestans) | Test A (control value class, blast on rice) (Magnaporthe grisea) | Test F (control value class, late blight on tomato) (Phytophthora infestans)
CCOc1cc(F)c(-c2c(-c3cc(F)cc(F)c3F)ccc(=O)n2CC)c(F)c1 [Compound 579] | – | – | H (H shows more than 50% of control values) | L (L shows 50% or less of control values)
CCOc1cc(F)c(-c2c(-c3cc(F)cc(F)c3F)cc(Cl)c(=O)n2CC)c(F)c1 [Compound 580] | – | – | H (H shows more than 50% of control values) | L (L shows 50% or less of control values)
CCN1C(=S)CCC(c2cc(OC)ccc2Cl)=C1c1c(F)cccc1F [Compound 581] | – | – | H (H shows more than 50% of control values) | L (L shows 50% or less of control values)
CCn1c(-c2c(F)cccc2F)c(-c2cc(OC)ccc2Cl)ccc1=O [Compound 582] | – | – | H (H shows more than 50% of control values) | L (L shows 50% or less of control values)
CCN1C(=O)CCC(c2cc(F)cc(F)c2Cl)=C1c1c(F)cc(F)cc1F [Compound 583] | – | – | H (H shows more than 50% of control values) | L (L shows 50% or less of control values)
CCn1c(-c2c(F)cc(F)cc2F)c(-c2cc(F)cc(F)c2Cl)ccc1=O [Compound 584] | – | – | H (H shows more than 50% of control values) | L (L shows 50% or less of control values)
CCn1c(-c2c(F)cc(F)cc2F)c(-c2cc(F)cc(F)c2Cl)cc(Cl)c1=O [Compound 585] | – | – | H (H shows more than 50% of control values) | L (L shows 50% or less of control values)
Cn1c(-c2c(F)cc(F)cc2F)c(-c2cc(F)cc(F)c2Cl)ccc1=O [Compound 586] | – | – | H (H shows more than 50% of control values) | L (L shows 50% or less of control values)
Cn1c(-c2c(F)cc(F)cc2F)c(-c2cc(F)cc(F)c2Cl)cc(Cl)c1=O [Compound 587] | – | – | H (H shows more than 50% of control values) | L (L shows 50% or less of control values)
CCn1c(-c2c(F)cc(OC)cc2F)c(-c2cccc(F)c2F)ccc1=O [Compound 588] | – | – | H (H shows more than 50% of control values) | L (L shows 50% or less of control values)
CCn1c(-c2c(F)cc(OC)cc2F)c(-c2cccc(F)c2F)cc(Br)c1=O [Compound 589] | – | – | H (H shows more than 50% of control values) | L (L shows 50% or less of control values)
CCn1c(-c2c(F)cc(OC)cc2F)c(-c2cccc(F)c2F)cc(Cl)c1=O [Compound 590] | – | – | H (H shows more than 50% of control values) | L (L shows 50% or less of control values)
CCOc1cc(F)c(-c2c(-c3ccccc3F)ccc(=O)n2C)c(F)c1 [Compound 591] | – | – | H (H shows more than 50% of control values) | L (L shows 50% or less of control values)
CCn1c(-c2c(F)cc(F)cc2F)c(-c2ccc(F)cc2Cl)cc(F)c1=O [Compound 592] | – | – | H (H shows more than 50% of control values) | L (L shows 50% or less of control values)
CCn1c(-c2c(F)cc(OC)cc2F)c(-c2ccc(F)cc2Cl)cc(Cl)c1=O [Compound 593] | – | – | H (H shows more than 50% of control values) | L (L shows 50% or less of control values)
CCn1c(-c2c(F)cc(F)cc2F)c(-c2ccc(F)cc2Cl)cc(C)c1=O [Compound 594] | – | – | H (H shows more than 50% of control values) | L (L shows 50% or less of control values)
CCOc1cc(F)c(-c2c(-c3ccc(F)cc3Cl)cc(Cl)c(=O)n2CC)c(F)c1 [Compound 595] | – | – | H (H shows more than 50% of control values) | L (L shows 50% or less of control values)
Cn1c(-c2c(F)cc(F)cc2F)c(-c2ccc(F)cc2Cl)cc(Cl)c1=O [Compound 596] | – | – | H (H shows more than 50% of control values) | L (L shows 50% or less of control values)
Cn1c(-c2c(F)cc(F)cc2F)c(-c2ccc(F)cc2Cl)cc(Br)c1=O [Compound 597] | – | – | H (H shows more than 50% of control values) | L (L shows 50% or less of control values)
CCOc1cc(F)c(-c2c(-c3ccccc3F)cc(Cl)c(=O)n2C)c(F)c1 [Compound 598] | – | – | H (H shows more than 50% of control values) | L (L shows 50% or less of control values)
